A collection of fitness landscapes (doi:10.1126/science.1257360)
The list shows a part of the results.

B1: PhoQ; a variant is named by its letters at X, in order, P23837 (parent)
chain: MKKLLRLFFPLSLRVRFLLATAAVVLVLSLAYGMVALIGYSVSFDKTTFRLLRGESNLFYTLAKWENNKLHVELPENIDKQSPTMTLIYDENGQLLWAQRDVPWLMKMIQPDWLKSNGFHEIEADVNDTSLLLSGDHSIQQQLQEVREDDDDAEMTHSVAVNVYPATSRMPKLTIVVVDTIPVELKSSYMVWSWFIYVLSANLLLVIPLLWVAAWWSLRPIEALAKEVRELEEHNRELLNPATTRELTSLVRNLNRLLKSERERYDKYRTTLTDLTHSLKTPLXXLQXXLRSLRSEKMSVSDAEPVMLEQISRISQQIGYYLHRASMRGGTLLSRELHPVAPLLDNLTSALNKVYQRKGVNISLDISPEISFVGEQNDFVEVMGNVLDNACKYCLEFVEISARQTDEHLYIVVEDDGPGIPLSKREVIFDRGQRVDTLRPGQGVGLAVAREITEQYEGKIVAGESMLGGARMEVIFGRQHSAPKDE

Variants of: B1
Test: enrichment ratio after two sorts for PhoP signalling (ratio (wild type AVST 3.29)); higher = more functional
Settings: with PhoP (E. coli)

Variant	enrichment ratio
FCYY	≤ 0.25
VYYP	≤ 0.25
NEHK	≤ 0.25
MKQQ	≤ 0.25
EWCS	≤ 0.25
NMMS	≤ 0.25
EYGI	≤ 0.25
NVLT	≤ 0.25
ACCY	19.6
GTMR	≤ 0.25
VEFM	≤ 0.25
KRII	≤ 0.25
HSPW	≤ 0.25
HEGG	≤ 0.25
MAIE	≤ 0.25
FDLV	≤ 0.25
GNQS	≤ 0.25
FQRF	≤ 0.25
LKCQ	≤ 0.25
YNKV	≤ 0.25
ESFS	≤ 0.25
MQRS	≤ 0.25
SIVC	2.74
MNSL	4.59

Variant	enrichment ratio
GGCA	6.15
IYYR	≤ 0.25
PKNN	≤ 0.25
MLEC	≤ 0.25
IWPL	≤ 0.25
VVHI	≤ 0.25
MAYT	1.93
VQQR	≤ 0.25
VIIT	≤ 0.25
IEMF	≤ 0.25
VYHC	≤ 0.25
RTVR	≤ 0.25
LMQK	≤ 0.25
PWPT	≤ 0.25
NKIP	≤ 0.25
EESY	≤ 0.25
KPRV	≤ 0.25
DVWP	≤ 0.25
YYLM	≤ 0.25
QNRA	≤ 0.25
CFIY	≤ 0.25
RILI	≤ 0.25
NVTK	≤ 0.25
WVGM	≤ 0.25

Variant	enrichment ratio
KESL	≤ 0.25
ILRK	≤ 0.25
KGMH	≤ 0.25
TFIM	≤ 0.25
DRWW	≤ 0.25
CCPF	≤ 0.25
IIYR	≤ 0.25
TRRQ	≤ 0.25
NNPC	≤ 0.25
MYAE	≤ 0.25
VRSK	≤ 0.25
KLHM	≤ 0.25
MMCF	≤ 0.25
FYRV	≤ 0.25
EAFE	≤ 0.25
TGGC	11.2
LGPR	≤ 0.25
RPHF	≤ 0.25
TSQF	7.76
ADMG	≤ 0.25
GFDM	0.951
RATL	≤ 0.25
VYYE	≤ 0.25
AYDR	≤ 0.25

Variant	enrichment ratio
MSES	≤ 0.25
EGEL	≤ 0.25
FHSL	≤ 0.25
YFFN	≤ 0.25
RSRH	≤ 0.25
KYDV	≤ 0.25
EYRG	≤ 0.25
FLHA	≤ 0.25
NTPV	≤ 0.25
GGHI	≤ 0.25
QHIR	≤ 0.25
YMNN	≤ 0.25
PDTC	≤ 0.25
PTAK	≤ 0.25
VLER	≤ 0.25
QFIP	≤ 0.25
NDFA	≤ 0.25
IIML	≤ 0.25
VADR	≤ 0.25
KLDH	≤ 0.25
HGGD	≤ 0.25
WDMC	≤ 0.25
YSGW	≤ 0.25
PMAG	≤ 0.25

Variant	enrichment ratio
VMVW	≤ 0.25
LRTV	≤ 0.25
WYIL	≤ 0.25
HNIE	≤ 0.25
GKPN	≤ 0.25
RVQH	≤ 0.25
MIMR	≤ 0.25
RLPW	≤ 0.25
RVEE	≤ 0.25
FWLW	≤ 0.25
PTFV	≤ 0.25
FLWC	≤ 0.25
NKKF	≤ 0.25
YGLV	13.5
HYSK	≤ 0.25
YGEI	≤ 0.25
MPPF	≤ 0.25
PFVL	≤ 0.25
LIFT	≤ 0.25
HRIR	≤ 0.25
KVRT	≤ 0.25
ECPI	≤ 0.25
IANS	≤ 0.25
MFHH	≤ 0.25

Variant	enrichment ratio
DERC	≤ 0.25
IQPQ	≤ 0.25
GNMR	≤ 0.25
IKLH	≤ 0.25
TGST	15.2
FWPA	≤ 0.25
KNIC	≤ 0.25
DPAF	≤ 0.25
PRGN	≤ 0.25
YLFA	≤ 0.25
NMER	≤ 0.25
QIGC	3.56
TLMW	≤ 0.25
WTLF	≤ 0.25
SYLH	0.355
MSID	≤ 0.25
EAAT	≤ 0.25
PGSK	≤ 0.25
HQVT	≤ 0.25
SPIA	≤ 0.25
RRRY	≤ 0.25
LPPY	≤ 0.25
GKRG	≤ 0.25
SIFM	≤ 0.25

Variant	enrichment ratio
ANQV	8.97
TSCR	2.04
HQWM	≤ 0.25
RAIF	≤ 0.25
INAR	≤ 0.25
ETWY	≤ 0.25
FCPC	≤ 0.25
NIMW	≤ 0.25
KMVE	≤ 0.25
FRCT	≤ 0.25
DKML	≤ 0.25
YRRN	≤ 0.25
HYYY	≤ 0.25
LRYE	≤ 0.25
EAQS	≤ 0.25
NQMW	≤ 0.25
NVAM	≤ 0.25
LTYW	≤ 0.25
YVQF	0.282
FPQT	≤ 0.25
IEMM	≤ 0.25
YYSR	≤ 0.25
SGPY	≤ 0.25
QADM	≤ 0.25

Variant	enrichment ratio
LQWQ	≤ 0.25
WCIW	≤ 0.25
NTTQ	≤ 0.25
LIMK	≤ 0.25
GQPF	≤ 0.25
HRTY	≤ 0.25
VQCC	≤ 0.25
GWRP	≤ 0.25
TTRD	≤ 0.25
IMYS	≤ 0.25
LCCE	≤ 0.25
IHRK	≤ 0.25
DLYL	≤ 0.25
YEHK	≤ 0.25
TVMD	≤ 0.25
LLKK	≤ 0.25
VYNV	≤ 0.25
AGMA	5.7
IGFY	≤ 0.25
AHKF	≤ 0.25
VNWI	≤ 0.25
MDNY	≤ 0.25
LVSR	≤ 0.25
IHVG	≤ 0.25

Variant	enrichment ratio
AQPI	≤ 0.25
KQGV	≤ 0.25
FHFT	≤ 0.25
WCTR	≤ 0.25
IHNH	≤ 0.25
LTKT	≤ 0.25
HIPQ	≤ 0.25
GVCH	6.89
QVVR	≤ 0.25
IDNH	≤ 0.25
QTSK	≤ 0.25
FRKQ	≤ 0.25
PEID	≤ 0.25
VAQN	≤ 0.25
HDAD	≤ 0.25
FAWN	≤ 0.25
YKYY	≤ 0.25
TSDV	5.89
LLGH	≤ 0.25
GYIY	≤ 0.25
AKSG	5.13
SHVF	1.7
QFIE	≤ 0.25
FYDR	≤ 0.25

Variant	enrichment ratio
PKCQ	≤ 0.25
YRVK	≤ 0.25
NATM	≤ 0.25
WHYI	≤ 0.25
AWNR	≤ 0.25
FCVC	0.972
TFDS	≤ 0.25
YCKQ	≤ 0.25
GRTQ	≤ 0.25
MYRS	≤ 0.25
HDFF	≤ 0.25
FHMY	≤ 0.25
LYAL	≤ 0.25
DIGM	≤ 0.25
DTCK	≤ 0.25
MTCI	≤ 0.25
QYKD	≤ 0.25
QCCK	≤ 0.25
QPCW	≤ 0.25
EIAL	2.14
ATLV	12.7
MRCD	≤ 0.25
FRGW	≤ 0.25
APDN	≤ 0.25

Variant	enrichment ratio
KDQA	≤ 0.25
GVHK	≤ 0.25
QNQV	≤ 0.25
DCSH	≤ 0.25
IWQP	≤ 0.25
WDKG	≤ 0.25
KLIE	≤ 0.25
TMLY	≤ 0.25
TDAP	≤ 0.25
FMFG	≤ 0.25
PILT	≤ 0.25
LPNY	≤ 0.25
VCGK	≤ 0.25
DLIV	≤ 0.25
VDML	≤ 0.25
IWWN	≤ 0.25
TFMP	≤ 0.25
MCKH	≤ 0.25
TPIS	≤ 0.25
TTTR	0.88
ISNG	≤ 0.25
RLWH	≤ 0.25
HEIV	≤ 0.25
RRKQ	≤ 0.25

Variant	enrichment ratio
PTER	≤ 0.25
MNMM	0.253
TCQM	≤ 0.25
FDFT	≤ 0.25
RGLI	≤ 0.25
NGMG	≤ 0.25
RVTA	≤ 0.25
MVNY	≤ 0.25
GPKG	≤ 0.25
TIPW	≤ 0.25
FEIL	0.675
INYS	≤ 0.25
WSTT	≤ 0.25
DERF	≤ 0.25
AWQP	≤ 0.25
QNFF	≤ 0.25
PDIL	≤ 0.25
MCMA	≤ 0.25
EYPC	≤ 0.25
PLSE	≤ 0.25
MRGV	≤ 0.25
QSRL	≤ 0.25
WDLN	≤ 0.25
IFMS	≤ 0.25

Variant	enrichment ratio
LFAR	≤ 0.25
CHHI	≤ 0.25
IQIC	≤ 0.25
GFQQ	≤ 0.25
LATE	≤ 0.25
PMIA	≤ 0.25
NEAV	≤ 0.25
VLSP	≤ 0.25
IIYS	≤ 0.25
VWQP	≤ 0.25
WNGC	≤ 0.25
EMMT	≤ 0.25
KFRN	≤ 0.25
WWFC	≤ 0.25
DNYC	≤ 0.25
ENWP	≤ 0.25
WPRT	≤ 0.25
GIFW	≤ 0.25
